What was measured:
SNU-5 transplanted tumor = assay: human gastric cancer transplanted tumor treated with Hetumomab; assay type: in vivo, nude mice; conditions: one month
Description: Specifically, the sphere cells of the human gastric cancer cell line SNU-5-V13 were harvested and inoculated in nude mice at 2.5×10^5 cells/mouse. The mice were divided into following 7 groups, with 8 mice in each group: the PBS control group; the mouse IgG control group; the chemotherapy group (cisplatin 0.3 mg/kg); the high dose antibody Hetumomab group (20 mg/kg); the low dose Hetumomab group (1.25 mg/kg); the high dose Hetumomab+chemotherapeutic drug group; and the low dose Hetumomab+chemotherapeutic drug group. The antibody treatment was started on the second day after inoculation of gastric cancer cells.
The experimental groups and the control group were treated by intraperitoneal injection. The treatments were performed for one month. The chemotherapeutic drug group was treated for 4 weeks, twice a week. The major and minor diameters of the subcutaneously transplanted tumor were measured twice a week. The tumor volume was calculated with the formula V=(π/6)×(major diameter×minor diameter×minor diameter). The change in tumor volume in each group was observed.

[1] = system: target antigen on the surface of MHCC-97L cells; assay: competitive inhibition cell ELISA; assay type: binding, human
Description: (§1) MHCC-97L cells were seeded in a 96-well culture plate (4×10^3 cells/well), and experiments were performed when the cells grew to 90% to 100%. After discarding the culture medium in the wells, the plate was washed with PBS containing 0.05% Tween-20, 300 μl/well, 1 min×5 times. The samples were then added based on the following design in duplicate, 100 μl/well, and incubated at 37° C. for 1.5 h. After discarding the liquid from the wells, the plate was washed with PBS containing 0.05% Tween-20, 300 μl/well, 1 min×5 times. Corresponding secondary antibodies against human IgG Fc-HRP (nonreactive with mouse IgG Fc) or against mouse IgG Fc-HRP (nonreactive with human IgG Fc) 1:5000 diluted was then added, 100 μl/well, and incubated for 1 h at 37° C. After discarding the liquid in the wells, the plate was washed with PBS containing 0.05% Tween-20, 300 μl/well, 1 min×3 times, and then washed again with pure water for two times. After shaking off the pure water, TMB was then added, 100 μl/well, and then incubated at 37° C. for 30 min for visualization; and then 2M H2504 was added, 50 μl/well. After that, the OD450 was measured by microplate reader.
as §1, with “added” for “added based on the following design”, “(not reactive” for “(nonreactive”, “μl/well.” for “μl/well. After that, the”

A549 cells = assay: flow immunofluorescence, positive cells in parental and sphere cells; assay type: binding, human
Description: (§2) The human lung cancer cell line SPCA-1 and A549 cells were cultured for 5 days in a serum-free manner, and the Hetumomab^+ cells in the parental cells and in the cells from sphere culture were detected by viable cell flow fluorescence cytometry. […] That is, after the serum-free culture, Hetumomab^+ cells of the lung cancer cell line were enriched.

SPCA-1 cells = assay: as above; assay type: binding, human
Description: as §2

IC50 of mouse monoclonal antibody, Hetumomab Vs Hetuximab ([1]; inhibiting binding of 0.25 ug/ml Hetuximab): 3.138 µg/mL
IC50 of mouse monoclonal antibody, Hetumomab Vs Hetuzumab H5L6 ([1]; inhibiting binding of 0.25 ug/ml Hetuzumab H5L6): 1.178 µg/mL
IC50 of mouse monoclonal antibody, Hetumomab Vs Hetuzumab H5L11 ([1]; inhibiting binding of 0.25 ug/ml Hetuzumab H5L11): 0.9757 µg/mL
IC50 of mouse monoclonal antibody, Hetumomab Vs Hetuzumab H5L12 ([1]; inhibiting binding of 0.25 ug/ml Hetuzumab H5L12): 0.1902 µg/mL
B1: Hetumomab: mouse monoclonal antibody (IgG1, κ) against human tumor stem cells, hybridoma CGMCC NO. 12251; VL SEQ ID NO:1, VH SEQ ID NO:5 (antibody, V domains shown)
VH: QVTLKESGPGILQPSQTLSLTCSFSGFSLSTSGMGVSWIRQPSGKGLEWLAHIYWDDDKRYNPSLKSRLTISKDSSNNQVFLKITSVDTADTATYYCARSFYYYANNSFAYWGQGTLVTVSS
VL: DIVMTQAAFSNPVTLGTSASISCRSSKSLLHSNGITYLYWFLQKPGQSPQLLIYQMSNLASGVPDRFSSSGSGTDFTLRISRVEAEDVGVYYCAQNLELYTFGGGTKLEIK
modifications: Hetumomab heavy chain variable region; Hetumomab light chain variable region
Tumor Volume Inhibition Rate (%) (SNU-5 transplanted tumor; High Dose 20 mg/kg i.p.): 57.62%
Tumor Volume Inhibition Rate (%) (SNU-5 transplanted tumor; Low Dose 1.25 mg/kg i.p.): 30.68%
Average OD450 ([1]; 0.25 μg/ml Hetumomab + 0 μg/ml Hetuximab, anti-mouse IgG Fc-HRP, Table 25): 2.278
Average OD450 ([1]; antibody alone 0.25 μg/ml, anti-human IgG Fc-HRP, Table 24): 0.082
Average OD450 ([1]; antibody alone 0.25 μg/ml, anti-mouse IgG Fc-HRP, Table 25): 2.168
Average OD450 ([1]; antibody alone 0.5 μg/ml, anti-human IgG Fc-HRP, Table 24): 0.082
Average OD450 ([1]; antibody alone 0.5 μg/ml, anti-mouse IgG Fc-HRP, Table 25): 2.361
Average OD450 ([1]; antibody alone 1 μg/ml, anti-human IgG Fc-HRP, Table 24): 0.112
Average OD450 ([1]; antibody alone 1 μg/ml, anti-mouse IgG Fc-HRP, Table 25): 2.523
Average OD450 ([1]; antibody alone 2 μg/ml, anti-human IgG Fc-HRP, Table 24): 0.133
Average OD450 ([1]; antibody alone 2 μg/ml, anti-mouse IgG Fc-HRP, Table 25): 2.674
Average OD450 ([1]; antibody alone 4 μg/ml, anti-human IgG Fc-HRP, Table 24): 0.161
Average OD450 ([1]; antibody alone 4 μg/ml, anti-mouse IgG Fc-HRP, Table 25): 2.702
Average OD450 ([1]; antibody alone 8 μg/ml, anti-human IgG Fc-HRP, Table 24): 0.177
Average OD450 ([1]; antibody alone 8 μg/ml, anti-mouse IgG Fc-HRP, Table 25): 2.726
Average OD450 ([1]; antibody alone 16 μg/ml, anti-human IgG Fc-HRP, Table 24): 0.210
Average OD450 ([1]; antibody alone 16 μg/ml, anti-mouse IgG Fc-HRP, Table 25): 2.818
Fold Enrichment (A549 cells): 1.84
ratio of positive cells, Cells from Sphere Culture (A549 cells): 13.30%
ratio of positive cells, Parental Cells (A549 cells): 7.23%
Fold Enrichment (SPCA-1 cells): 4.22
ratio of positive cells, Cells from Sphere Culture (SPCA-1 cells): 7.34%
ratio of positive cells, Parental Cells (SPCA-1 cells): 1.74%
